Data: PubChem BioAssay AID624296 (National Center for Advancing Translational Sciences (NCATS), 2012)
Screen size: about 350,000 compounds; about 9,900 (2.8%) were called active. Inconclusive means that the source gave no clear call. Such entries were picked first, then a sample of the others. The call rests on the fitted dose curve; in most records, active means well fitted activation curve with a large enough effect; inconclusive means small, poorly fitted or top-dose-only effect; inactive means no such curve, though single readings can be large or run the other way. No potency is given beside an inconclusive call; the fits are too rough.

assay: A quantitative high throughput screen for small molecules that induce DNA re-replication in MCF 10a normal breast cells.; further: nearly all actives have a fitted effect of over 50% in size; conditions: MCF 10A DNA re-replication, Hoechst nuclear intensity, 48 h; series mostly up to 46.1 µM
Potency means the concentration at half of the fitted maximal effect; tags describe the fitted curve by direction and shape.

| Compound | Potency |
| --- | --- |
| CCC(C)NC(=O)Cn1cc(S(=O)(=O)N2CCCC2)c(S(=O)(=O)N2CCCC2)c1 (stereo not drawn) | inconclusive [activator, partial curve, poor fit] |
| Cc1csc(NC(=O)CSc2ncnc3ccccc23)n1 | inconclusive [activator, single point] |
| O=C(/C=C/c1cccc(Br)c1)N1CCN(c2cccc(C(F)(F)F)c2)CC1 | inconclusive [activator, partial curve, poor fit] |
| COC(=O)[C@@]1(Cc2ccc(F)cc2)[C@H]2c3cc(C(=O)N(C)C)n(Cc4ccccc4)c3C[C@H]2CN1C(=O)c1ccccc1 | inconclusive [activator, full curve, poor fit] |
| O=C(NCCOc1ccccc1F)Nc1ccc(Br)cc1 | inconclusive [activator, single point] |
| CCc1nc2oc3ccccc3c(=O)c2c(=O)n1-c1ccccc1 | inactive |
| COc1cc(C2C=C(c3cccs3)Nc3ncnn32)cc(OC)c1OC (stereo not drawn) | inconclusive [activator, full curve, poor fit] |
| O=S(=O)(NC1CCCCC1)c1cccc(-c2nnc(-c3ccccc3)o2)c1 | inactive |
| COc1cccc(NC2=NCC(=O)N2Cc2cccs2)c1 | inconclusive [activator, partial curve, poor fit] |
| COc1ccc(C(=O)Nc2cnn(Cc3ccc(Cl)cc3)c2)cc1OC | active: 11.6 µM |
| COc1nc(C)ccc1-c1noc(-c2ccccn2)n1 | inactive |
| CC(=O)c1cccc(NC(=O)C2COc3ccccc3O2)c1 (stereo not drawn) | inconclusive [activator, partial curve, poor fit] |
| COC(=O)c1ccccc1NC(=O)CN1CCc2ccccc2C1 | inconclusive [activator, partial curve, poor fit] |
| O=C(NC1CCCCC1)N(CCO)Cc1cc2cc3c(cc2[nH]c1=O)OCCO3 | inactive |
| CCN(CC(=O)Nc1ccccc1Br)C1CCCCC1 | inconclusive [activator, partial curve, poor fit] |
| COc1ccccc1N1CCN(C(=O)c2ccc3[nH]c(C)c(C)c3c2)CC1 | inconclusive [activator, full curve, poor fit] |
| Cc1ccc(OC[C@H](O)[C@H](C)NC(C)C)c2c1CCC2 | inconclusive [activator, partial curve, poor fit] |
| COc1ccc(C(=O)c2ccccc2)c2c(O)ccc(C(=O)c3ccccc3)c12 | inconclusive [activator, single point] |
